Measured values from PubChem BioAssay AID463173 (ICCB-Longwood Screening Facility, Harvard Medical School, 2010).
Out of some 52,000 compounds screened, about 1,700 (3.3%) were called active. Rule as the data show it: active = survival mostly below about 52% (no sharp cut-off); inactive = mostly above about 56%. Some of the results follow.

tested on: Wild type; assay: S. aureus survival, RN4220 and DeltatarO strains – OD600, teichoic acid synthesis inhibitors, primary screen (AID 463173); details: S. aureus RN4220 wild type/DeltatarO growth, OD600, 18 h, hits give low values, screened at 18.75 µg/mL (by protocol)

Row | SMILES | survival
1 | CC1CCN(S(=O)(=O)c2ccc3c(c2)N(CC(=O)NCc2ccccc2Cl)C(=O)CS3)CC1 | inactive: 73%
2 | c1ccc(-c2cc(-c3ccccc3)c3c(n2)-c2ccccc2OC3)cc1 | inactive: 27%
3 | COc1ccc(C2C(=O)N(C3CCC(C)CC3)CC(=O)N2Cc2ccc(C)cc2)cc1OC (stereo not given) | inactive: 82%
4 | CSc1ncc(Cl)c(C(=O)NCc2ccc(C)cc2)n1 | inactive: 88%
5 | COC(=O)C(=NNc1cccc(Cl)c1)C(=O)OC | inactive: 110%
6 | O=S(=O)(Nc1ccc(F)c(C(F)(F)F)c1)c1ccc(N2CCCCS2(=O)=O)cc1 | inactive: 146%
7 | O=C(Nc1cccc(C(F)(F)F)c1)C1CCCN(S(=O)(=O)c2cccc3nsnc23)C1 (stereo not given) | inactive: 85%
8 | Cc1ccc2c(CC(=O)N3CCN(c4cccc(Cl)c4)CC3)coc2c1 | inactive: 82%
9 | CCCCNc1ccc(-c2nc(-c3ccccc3)no2)cc1[N+](=O)[O-] | inactive: 83%
10 | COc1ccc(OC)c(CNS(=O)(=O)c2c(C(=O)N3CCC(C)CC3)c(C)n(C)c2C)c1 | inactive: 47%
11 | Cc1cc(C)cc(NC(=O)Cn2nnc(C(=O)NCCc3ccccc3)c2N)c1 | inactive: 93%
12 | Cc1ccc(C#N)c(=O)[nH]1 | inactive: 127%
13 | CN(C)c1cc[n+](CC(=O)N2CCCc3ccccc32)cc1 | inactive: 108%
14 | CCOc1ccc(C(=O)NCCc2sc(-c3ccc(C)cc3)nc2C)cc1 | active: -3%
15 | Cc1ccc(CCNC(=O)c2ccc(CS(=O)(=O)c3ccc(Br)cc3)o2)cc1 | inactive: 131%
16 | CCOc1ccccc1NC(=O)CSc1c(C)cnc2c1c(=O)n(C)c(=O)n2C | inactive: 67%
17 | COc1cc(Nc2nc(SCc3ccccc3F)nc3ccccc23)cc(OC)c1 | inactive: 128%
18 | Cc1ccc(C(c2nnnn2C2CCCC2)N2CCc3ccccc32)cc1 (stereo not given) | inactive: 118%
19 | COc1ccc(CCNC(=O)c2cnc3sc(N4CCCCCC4)nn3c2=O)cc1OC | inactive: 72%
20 | CCOCCCNC(=O)C(c1ccc(OC)cc1)N(Cc1cccs1)C(=O)c1ccccc1O (stereo not given) | inactive: 65%
21 | CC1=C(C(=O)Nc2c(C)cc(C)cc2C)C2(CCN(C(C)C)CC2)OC1=O | inactive: 118%
22 | CC1=C(C(=O)Nc2cccc(C)c2C)C2(CCCCC2)OC1=O | inactive: 74%
23 | CC1(C)NC(=O)N(CC(O)CNC23CC4CC(CC(C4)C2)C3)C1=O (stereo not given) | inactive: 108%

Row | SMILES | survival
24 | CC(C)NC(=O)CSc1nc2ccccc2nc1N1CCCCC1 | active: -28%
25 | COc1ccccc1N1CCN(CCCNC(=O)c2cnn(-c3ccccc3Cl)c2C2CCN(C(=O)OC(C)(C)C)CC2)CC1 | inactive: 78%
26 | Cc1ccc(Sc2ccc(N3CCCC(C(=O)Nc4ccc(Cl)cc4)C3)nn2)cc1 (stereo not given) | inactive: 71%
27 | CCOc1ccc(C(=O)NC2CCN(C(=O)NCc3ccccc3)CC2)cc1 | inactive: 109%
28 | Cc1ccc(N2CC(NC(=O)Cc3cccs3)CC2=O)cc1 (stereo not given) | active: 0%
29 | COc1cc(OC)c(NC(=O)Nc2nnc(N(C)C3CCCCC3)s2)cc1Cl | inactive: 14%
30 | CCOc1cccc2sc(N(Cc3cccnc3)C(=O)c3ccco3)nc12 | inactive: 85%
31 | COc1ccc(C(c2c(C)n(C)n(-c3ccccc3)c2=O)c2c(C)n(C)n(-c3ccccc3)c2=O)cc1O | inactive: 93%
32 | COc1ccc(-c2cc3c(=O)n(CC(=O)Nc4ccccc4C(F)(F)F)ccn3n2)cc1OC | inactive: 91%
33 | CCCc1nc(N)c(C#N)c(-c2ccc(F)cc2)c1CC | inactive: 114%
34 | O=C(O)CCc1ccco1 | inactive: 107%
35 | COc1ccc(Cn2nnnc2CN(Cc2cccs2)Cc2cc3ccc(OC)cc3[nH]c2=O)cc1 | inactive: 111%
36 | CC(=O)c1ccc(NC(=O)CN(C)S(=O)(=O)c2cc3c(cc2C)NC(=O)CO3)cc1 | inactive: 82%
37 | CC1CCN(CC(=O)N2CCCc3c2c(=O)oc2ccc(OCc4ccccc4)cc32)CC1 | inactive: 86%
38 | Cc1c(C(=O)Nc2ccc(Br)cc2F)oc2ccc(S(=O)(=O)N3CCCCC3)cc12 | inactive: 68%
39 | CC1(C(=O)Nc2cccc(C(F)(F)F)c2)Cc2ccccc2C(=O)O1 (stereo not given) | inactive: 104%
40 | O=C(CN1C(=O)C2CCCCN2c2ccc(C(=O)N3CCCC3)cc21)NCc1ccc(F)cc1 (stereo not given) | inactive: 77%
41 | Cc1nc(N2CCOCC2)c2c(C(=O)N3CCN(c4cc(Cl)ccc4C)CC3)c(C)oc2n1 | inactive: 64%
42 | COc1ccc(CNC(=O)C2CCCCN2S(=O)(=O)c2ccc(F)cc2)cc1 (stereo not given) | inactive: 87%
43 | CCOc1c(CC2C(=O)Nc3ccc(Br)cc32)cccc1OC (stereo not given) | inactive: 99%
44 | CCCNC(=O)CN1C(=O)COc2ccc(S(=O)(=O)N3CCCC3)cc21 | inactive: 89%
45 | CCCC(=O)Nc1nc2ccc(S(C)(=O)=O)cc2s1 | inactive: 109%
